Assay results published in PubChem BioAssay AID493208 (National Center for Advancing Translational Sciences (NCATS), 2011).
Hit rate of the full screen: of about 44,000 compounds, about 340 (0.77%) were called active. About 5% were inconclusive and are not listed. Calls follow the shape of the dose curve; as a rule, active = well fitted inhibition curve with a large enough effect; inconclusive = small, poorly fitted or top-dose-only effect; inactive = flat fitted curve, though single readings scatter. This is one part of the list.

Experiment: Acumen qHTS Assay for Inhibitors of the mTORC1 Signaling Pathway in MEF (Tsc2-/-, p53-/-) Cells: Sytravon;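 also: plate controls were DMSO for no effect and rapamycin for full effect; nearly all actives have a fitted effect of over 50% in size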
Settings: phospho-rpS6 immunofluorescence/PI, 24 h; series mostly up to 38.3 µM; activity change, negative = inhibition: at the top concentration
Method in brief: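 Cell-based qHTS: Tsc2-/- p53-/- MEF, 24 h cpd, 37 °C; fix/perm, anti-phospho-S6 Alexa-488 + PI; Acumen 488 nm scan; pS6/PI ratio, % positive cells; rapamycin 7.5 nM = inhibition ref; PI count = viability.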

Activity change, negative = inhibition, inactive:
COc1ccc(CNS(=O)(=O)c2cc(Br)cc3c2N(C(C)=O)C(C)C3)cc1 (configuration not stated) -8.56%, O=C(NCc1cccc(F)c1)c1ccc(CN2CC(=O)N3CCCCC3C2=O)cc1 (configuration not stated) -4.45%, Cc1ccc(-n2cnc3cc(C(=O)NCc4ccc(F)cc4)ccc32)c(C)c1 11.5%, CCCCc1ccc(-n2nc3cc(Cl)c(NC(=O)c4ccc(OC)cc4)cc3n2)cc1 3.04%, Cc1cccc(C(=O)NCCc2nc3ccccc3n2Cc2ccc(Cl)cc2)c1 -5.07%, CCOC(=O)c1cccc(NS(=O)(=O)c2ccc3[nH]c4c(c3c2)CCCC4)c1 -19%, Cc1ccc(OC(C)C(=O)N2CCN(CCc3ccncc3)CC2)cc1C (configuration not stated) 0.135%, O=S(=O)(NCc1ccc(Cl)cc1)c1ccc2[nH]c3c(c2c1)CCCC3 -6.1%, CCOc1ccc(-c2cc3c(=O)n(Cc4nc(-c5ccccc5OCC)oc4C)ccn3n2)cc1Cl 4.88%, Cc1ccc(Cn2c(C)c(CNCC(C)c3ccccc3)c(C(=O)O)c2C)cc1 (configuration not stated) -3.81%, Cc1ccc(NC(=O)c2ccc(Cl)cc2Cl)c(C(=O)c2ccccc2)c1 13.5%, COCCCNC(=O)C1CCC(Cn2c(=O)c3sccc3n(C)c2=O)CC1 (configuration not stated) -5.05%, CCC(CC)C(=O)Nc1ccccc1SCc1cc(=O)c2cccc(C)c2[nH]1 -16.9%, Cc1ccc(NC(=O)CN2CCN(c3ccccc3F)CC2)cc1F 10.6%, CCOC(=O)C1CCN(c2nc3c(S(=O)(=O)c4ccccc4)nnn3c3ccc(Cl)cc23)CC1 -1.85%, COc1ccc(C(=O)c2sc3nc(-c4ccc(C)cc4)cc(C(F)(F)F)c3c2N)cc1 0.203%, Cc1ccc(C)c(N2CCN(S(=O)(=O)c3ccc(-c4coc(C)n4)cc3)CC2)c1 2.03%, CCCCc1c(C)nc2c(-c3ccc(Cl)cc3)c(C)[nH]n2c1=O 9.71%, COc1cc(OC)cc(C(=O)Nc2ccc(-c3nc4cc(C(C)C)ccc4o3)cc2)c1 -2.96%, COc1ccc(-n2cc(-c3ccc4c(c3)OCO4)n(CC(=O)Nc3cccc(C)c3C)c2=O)c(OC)c1 -14.6%, CCCCN(CCCNC(=O)c1cc(Nc2ccc(OC)cc2)nc2ccccc12)Cc1ccccc1 -12.3%, O=S(=O)(Nc1ccc(F)c(Cl)c1)c1ccc(Br)s1 4.45%, Cc1ccc(S(=O)(=O)c2nc(S(=O)(=O)c3ccc(C)cc3)c(NCCCOC(C)C)s2)cc1 3.94%, Cc1cccc(N2CCN(C(=O)Cn3ncc4c5ccccc5n(C)c4c3=O)CC2C)c1 (configuration not stated) -1.77%, O=c1c(S(=O)(=O)c2ccccc2)cn(Cc2ccc(F)cc2)c2cc(N3CCOCC3)c(F)cc12 -2.19%, O=C(COCc1cc(-c2ccc(F)cc2)on1)Nc1cc(Cl)ccc1O -10.3%, CC(=O)C1=C(c2ccc(Cl)c(Cl)c2)N(C(C)=O)n2c(nnc2-c2ccccc2)S1 -2.92%, COc1ccc(CCNC(=O)CCCn2c(=O)c3ccccc3n(Cc3ccccc3C#N)c2=O)cc1OC -22.5%, Cc1ccccc1-n1nc(CO)c(C(=O)NCC(c2ccccc2)c2ccccc2)n1 -28.6%, COc1cccc2cc(-c3nc(Nc4cccc(C)c4C)sc3C)c(=O)oc12 -11%, Nc1nonc1C(=O)NCCNCc1ccccc1F -7.79%, CC(=O)Nc1nonc1-c1nnc(SCC(=O)Nc2cc(Cl)ccc2C)n1C 0%, COc1cccc(C2C=C(c3ccccc3)Nc3c(C(=O)Nc4ccccc4)cnn32)c1OC (configuration not stated) 4%, COc1cc(C(CC(=O)Nc2cccc(C(C)=O)c2)N2Cc3ccccc3C2=O)cc(OC)c1OC (configuration not stated) -5.55%, CCOC(=O)c1c(NC(=O)/C=C/c2ccc(C)cc2)sc(C(C)=O)c1C -10.4%, Cc1cccc(C(=O)Nc2sc3c(c2C(=O)NC(C)C)CCCC3)c1 -3.39%, Cn1c(=O)c2c(nc(NCCc3ccccc3)n2Cc2ccc(Cl)cc2)n(C)c1=O -19.6%, CCOC(=O)c1cc(S(=O)(=O)NCc2cccc(Cl)c2)[nH]n1 -3.72%, CCOC(=O)c1cnc2cc(F)c(F)cc2c1Nc1ccccc1O 5.66%, CC(C)(C)OC(=O)N1CCC(c2c(C(=O)N3CCCCC3)cnn2-c2cccc(F)c2)CC1 0.97%, CC(=O)c1ccc(N2CCN(C(=O)CCc3nnc4n(C)c(=O)c5sccc5n34)CC2)cc1 -1.73%, COc1cc(OC)c(NC(=O)c2noc3c2CSc2ccccc2-3)cc1Cl 2.71%, CCCCn1c(SCC(=O)Nc2ccc(OCC)cc2)nc2ccsc2c1=O -3.03%, Cc1ccc(CNC(=O)CSc2ncc3c(n2)-c2ccc(Cl)cc2N(Cc2ccccc2)S3(=O)=O)cc1 2.11%, Cc1ccc(NS(=O)(=O)c2cc3[nH]c(=O)c(=O)[nH]c3cc2C)cc1N(C)C -8.33%, CCc1ccccc1NC(=O)[C@@H](c1ccccc1)N1Cc2ccccc2C1=O -2.44%, Cc1ccc(NC(=O)CCCn2c(=O)c3cccn3c3cccnc32)cc1C -28%
